The list shows a part of the results. Repeats are few or missing, and single values can be far off.

This is an account of results in the supplement of paper PMC4604168 (melanoma cell lines).
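Also: cell number obtained by counting DAPI-stained nuclei in high-throughput microscope images with image analysis software, screen run in 1,536-well plates.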

The test system of the assay is 501Mel. Description: cell count relative to DMSO control; melanoma cells; higher = more viable cells. The note with it: library dose: low library concentration; 72 h.
Turning to `C[C@]1(c2nc3c(C(N)=O)cccc3[nH]2)CCCN1` [Veliparib] + Oc1cc(-c2nc(-c3ccccc3)[nH]c2-c2ccncc2)ccc1Cl [L779450] (first compound 1.4 µM, partner dose 0.2 µM), the cell count is 90.3%. Regarding `CN(C)S(=O)(=O)c1ccc2c(c1)/C(=C/c1cc3c([nH]1)CCCC3)C(=O)N2` + O=C(O)c1ccc(-c2c[nH]c3ncc(-c4ccccc4)cc23)cc1C1CCCC1 [GSK650394] (first compound 0.4 µM, partner dose 0.16 µM), the cell count came to 93.4%. Compound `NC(=O)Nc1cc(-c2cccc(F)c2)sc1C(=O)N[C@H]1CCCNC1` + Cc1cc(N2CCOCC2)cc2[nH]c(-c3c(NC[C@@H](O)c4cccc(Cl)c4)cc[nH]c3=O)nc12 [BMS536924] (first compound 0.02 µM, partner dose 0.2 µM) registered a cell count of 87.4%. The result for `C=CCn1c(=O)c2cnc(Nc3ccc(N4CCN(C)CC4)cc3)nc2n1-c1cccc(C(C)(C)O)n1` + CCN(CC)CCCCNc1ncc2cc(-c3cc(OC)cc(OC)c3)c(NC(=O)NC(C)(C)C)nc2n1 [PD173074] (first compound 0.02 µM, partner dose 0.1 µM) reads 107%.

Consider `Cc1nc(Nc2ncc(C(=O)Nc3c(C)cccc3Cl)s2)cc(N2CCN(CCO)CC2)n1` [dasatanib] + O=S(=O)(c1ccccc1)N(CC(F)(F)F)c1ccc(C(O)(C(F)(F)F)C(F)(F)F)cc1 [T0901317] (first compound 0.004 µM, partner dose 1.4 µM), for which the cell count was 76.4%. The result for `OCCn1cc(-c2cnc3nnn(Cc4ccc5ncccc5c4)c3n2)cn1` + Cn1cc(/C=C2\C(=O)Nc3cccnc32)c2ccccc21 [GW441756] (first compound 1 µM, partner dose 0.4 µM) reads 94.8%; that for `NC(=O)Nc1cc(-c2cccc(F)c2)sc1C(=O)N[C@H]1CCCNC1` + O=C(O)C(=O)Nc1sc2c(c1C(=O)O)CCNC2 [TCS401] (first compound 0.02 µM, partner dose 1.66667 µM), 81.5%; that for `OCCn1cc(-c2cnc3nnn(Cc4ccc5ncccc5c4)c3n2)cn1` + CCCCCCCCCCCC1=C(O)C(=O)C=C(O)C1=O [Embelin] (first compound 1 µM, partner dose 1.2 µM), 103%. With `Cc1nc(Nc2ncc(C(=O)Nc3c(C)cccc3Cl)s2)cc(N2CCN(CCO)CC2)n1` [dasatanib] + COC(=O)c1sccc1S(=O)(=O)Nc1ccc(Nc2ccccc2)cc1OC [GSK0660] (first compound 0.004 µM, partner dose 1 µM) the figure was 102%; with `C[C@]1(c2nc3c(C(N)=O)cccc3[nH]2)CCCN1` [Veliparib] + CCN(CC)CCCCNc1ncc2cc(-c3cc(OC)cc(OC)c3)c(NC(=O)NC(C)(C)C)nc2n1 [PD173074] (first compound 1.4 µM, partner dose 0.1 µM), 104%; with `C=CCn1c(=O)c2cnc(Nc3ccc(N4CCN(C)CC4)cc3)nc2n1-c1cccc(C(C)(C)O)n1` + COC(=O)c1sccc1S(=O)(=O)Nc1ccc(Nc2ccccc2)cc1OC [GSK0660] (first compound 0.02 µM, partner dose 1 µM), 103%. With `NC(=O)Nc1cc(-c2cccc(F)c2)sc1C(=O)N[C@H]1CCCNC1` + O=C(Nc1ccccc1)c1cc([N+](=O)[O-])ccc1Cl [GW9662] (first compound 0.02 µM, partner dose 2 µM) the figure was 74.8%.

`OCCn1cc(-c2cnc3nnn(Cc4ccc5ncccc5c4)c3n2)cn1` + Cn1cncc1[C@@](N)(c1ccc(Cl)cc1)c1ccc2c(c1)c(-c1cccc(Cl)c1)cc(=O)n2C [tipifarnib] (first compound 1 µM, partner dose 0.01 µM) came in with a cell count of 92.2%. The result for `CN(C)S(=O)(=O)c1ccc2c(c1)/C(=C/c1cc3c([nH]1)CCCC3)C(=O)N2` + O=C(Nc1ccccc1)c1cc([N+](=O)[O-])ccc1Cl [GW9662] (first compound 0.4 µM, partner dose 2 µM) reads 82.1%. With `CN(C)S(=O)(=O)c1ccc2c(c1)/C(=C/c1cc3c([nH]1)CCCC3)C(=O)N2` + CCc1ccc(CCOc2ccc(CC3SC(=O)NC3=O)cc2)nc1 [pioglitazone] (first compound 0.4 µM, partner dose 2 µM) the figure was 97.1%.
